In all, about 52,000 compounds went through this assay and about 1,700 (3.3%) were called active. No stated cut-off is given here; in the data, active means survival mostly below about 52% (no sharp cut-off); inactive means mostly above about 56%. Some of the results follow.

The subject of the assay is Wild type. Briefly: growth inhibition of S. aureus wild type versus tarO mutant, primary screen, teichoic acid synthesis inhibitors, RN4220, OD600 (AID 463173). Conditions: S. aureus RN4220 wild type/DeltatarO growth, OD600, 18 h, stronger effect = lower value, screened at 18.75 µg/mL (by protocol).
For the molecule `COc1ccccc1CCNC(=O)C(=O)NCC(c1ccco1)S(=O)(=O)c1ccc(C)cc1` (stereo not given), the survival was inactive: 134%.
The result for `CCC(=O)N1CCc2cc(S(=O)(=O)CCC(=O)NCc3ccccc3OC)ccc21` reads inactive: 86%; that for `CCCCn1c(CNC(=O)c2ccc(OC)cc2)nnc1SCC(=O)Nc1ccc(OC)cc1`, inactive: 81%.
In the case of `Cc1cc(NC(=O)Nc2nc3c(s2)CCCCCC3)ccc1Br`, the survival was inactive: 80%.
As for `Cc1ccc(NCc2nc3ccccc3n2CCOc2ccccc2)cc1`, the survival is active: -20%.
The result for `COc1ccccc1Nc1cc(C(=O)NCc2cccs2)c2ccccc2n1` reads inactive: 91%.
On to `COc1ccccc1-c1nnc(C2CCN(C(=O)c3ccc(C)cc3)CC2)o1`, for which the survival was inactive: 91%.
The same measure for `COc1ccc(-c2noc(-c3nnn(-c4cc(C)ccc4C)c3N)n2)cc1`: inactive: 98%; for `NC(=O)CSc1ncc2c(n1)-c1ccccc1N(Cc1cccc(F)c1)S2(=O)=O`: inactive: 73%.
On to `COc1ccc2nc3oc(C(=O)NCc4ccccc4OC)cc3cc2c1`, for which the survival is inactive: 88%.
For `Cc1ccc(-c2nc(CS(=O)CC(=O)N3CCN(c4ccc(Cl)cc4)CC3)c(C)o2)cc1` (stereo not given), the survival is inactive: 73%.
The result for `CN(C)S(=O)(=O)c1ccc2c(c1)N(CC(=O)N1CCN(c3ccc(F)cc3)CC1)CCS2` reads inactive: 87%.
Regarding `CC1(C)CC(=O)c2c(oc3c(Cl)cc(NS(=O)(=O)c4ccc(Cl)cc4)cc23)C1`, the survival is inactive: 90%.
The same measure for `CCN(CC)CCNC(=O)c1ccc(Cn2c(=O)c3cccn3c3cccnc32)cc1`: inactive: 96%; for `CC1CCN(c2ccc(-c3nc(C(C)C)no3)cc2[N+](=O)[O-])CC1`: inactive: 81%.
As for `N#Cc1ccccc1CSc1nc(N)cc(N)n1`, the survival is inactive: 92%.
The same measure for `Cc1cc(NC(=O)CSc2ncc(C(=O)Nc3ccc(F)cc3)c(=O)n2C)no1`: inactive: 77%; for `Cc1nc2ccccc2c(=O)n1-c1ccc(NC(=O)C(F)(F)F)cc1`: inactive: 88%; for `Cc1ccc(-n2ncc(C(=O)NCCc3ccsc3)c2C2CCN(C(=O)OC(C)(C)C)CC2)cc1C`: inactive: 73%.
Regarding `O=c1oc2ccc(Br)cc2cc1-c1csc(-c2ccc(Cl)cc2)n1`, the survival is inactive: 74%.
The result for `O=C(CC(NCc1cccnc1)C(=O)O)Nc1ccc(F)cc1` (stereo not given) reads inactive: 71%; that for `CCCNC(=O)c1ccc(-n2c(-c3ccccc3)cc3c2CCC(C)C3)cc1` (stereo not given), inactive: 121%.
The result for `CCOc1ccccc1NC(=O)c1c(NCc2sccc2C)sc2c1CCCCC2` reads inactive: 74%.
`C=Cc1ccc(Cn2c(C(=O)O)c(CNCc3cc(Br)ccc3OC)c3ccc(C)cc32)cc1`: the survival was inactive: 99%.
For the molecule `N#C/C(=C\c1cn(Cc2ccc(C#N)cc2)c2ccccc12)C(=O)NCc1ccco1`, the survival is inactive: 104%.

For the origin of these results see PubChem BioAssay AID463173 (ICCB-Longwood Screening Facility, Harvard Medical School, 2010).
